Earlier results, collected in patent publication US9499554B2, “Anti-influenza compositions and methods” (priority 2013, dated 2016).

System: influenza virus
Conditions: cited from earlier work

NC(=O)c1nc(F)cnc1O [T-705, 6-fluoro-3-hydroxy-2-pyrazinecarboxamide]
antiviral activity against multiple strains of influenza virus infection: potent and broad spectrum antiviral activity
